# Laboratory results: PubChem BioAssay AID1346428 (National Center for Advancing Translational Sciences (NCATS), 2018)
# In all, about 48,000 compounds went through this assay and about 1,200 (2.5%) were called active. Inconclusive results (about 2%) are left out.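 The calls were made as follows: active = activation of at least 60% and not above a set upper limit (about 1 call in 100 departs from these limits); inconclusive = activation of 40% to 60%, or above that upper limit; inactive = activation under 40%.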 The list shows a part of the results.
# Molecular target: Probable G-protein coupled receptor 32 (Homo sapiens) (UniProt O75388)
# Sequence of UniProt O75388 (O75388 whole entry, looked up): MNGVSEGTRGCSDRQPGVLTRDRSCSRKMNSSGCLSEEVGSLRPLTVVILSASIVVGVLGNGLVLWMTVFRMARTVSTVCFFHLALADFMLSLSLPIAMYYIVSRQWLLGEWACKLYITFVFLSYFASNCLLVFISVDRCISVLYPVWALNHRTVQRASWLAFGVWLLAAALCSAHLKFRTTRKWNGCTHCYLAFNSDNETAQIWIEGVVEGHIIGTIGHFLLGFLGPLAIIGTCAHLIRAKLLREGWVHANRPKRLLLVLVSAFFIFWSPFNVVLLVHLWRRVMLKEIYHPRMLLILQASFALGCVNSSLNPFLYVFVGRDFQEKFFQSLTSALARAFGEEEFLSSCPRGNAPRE
# Experiment: qHTS for Agonists of Human Resolvin D1 Receptor DRV1; also: 0% is about no effect
# Settings: CHO-K1 GPR32 beta-arrestin PathHunter luminescence, 90 min; at 76.9 µM; hits give high values; zero percent set by DMSO-only wells
# How it was run: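 PathHunter enzyme-fragment complementation, CHO-K1 GPR32 stable line; 2,500 cells/well, overnight attach; cpd 90 min 37 °C 5% CO2; detection reagent 1 h RT; chemiluminescence. DMSO = EC0.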
row,SMILES,activation
1,COc1ccc(-c2ccc(CCC(=O)O)n2-c2ccc(Cl)cc2C)cc1,inactive: -5.49%
2,COc1ccc(C2Oc3nc(SC)nnc3-c3ccccc3N2C(C)=O)cc1 (stereo not given),inactive: 2.85%
3,CCc1ccc(-n2nc(CO)c(C(=O)NCc3ccccc3OC)n2)cc1,inactive: -1.56%
4,CCn1cc(S(=O)(=O)c2cccc(C)c2)c(=O)c2cc(F)c(N3CCN(c4ccccc4)CC3)cc21,inactive: -8.71%
5,Cc1ccc2[nH]c3c(=O)n(CC(=O)NCCc4ccc(Cl)cc4)ncc3c2c1,inactive: -14.4%
6,COc1ccc(NC(=O)C2CCN(c3cnccn3)CC2)cc1Cl,inactive: 5.98%
7,COCCCn1c(=O)c2sccc2n2c(CCCC(=O)NCc3ccc(F)cc3)nnc12,inactive: 0.409%
8,O=C(Nc1ccc2oc(-c3ccc(Cl)cc3)nc2c1)c1ccc2ccccc2c1,inactive: 3.26%
9,O=C(CCOc1ccccc1)N(Cc1cccnc1)c1nc2ccc(F)cc2s1,inactive: -16.2%
10,CCOC(=O)c1c(NC(=O)c2ccc(OC)c(OC)c2)sc2c1CCCCC2,inactive: 2.44%
11,Cn1c(=O)oc2cc(S(=O)(=O)N3CCC(C(=O)N4CCN(c5ccc(Cl)cc5)CC4)CC3)ccc21,inactive: 5.68%
12,CCOc1ccccc1NC(c1nnc(-c2ccccc2)o1)c1ccc(F)cc1Cl (stereo not given),inactive: -28.5%
13,CCN(C(=O)c1cc2c(=O)oc3ccc(C)cc3c2s1)c1ccccc1F,inactive: 4.97%
14,CCN(CC)c1cc(C)c2cc(NC(=O)c3ccc(F)cc3Cl)ccc2n1,inactive: 18.1%
15,CCN(CC)CCCN(c1ccccc1)C1Cc2ccccc2C1,inactive: -12.9%
16,CCOC(=O)c1cc(C)n(CC2CCC(C(=O)Nc3ccc(C(=O)OC)cc3)CC2)c1C (stereo not given),inactive: -19.4%
17,Cc1cccc(NS(=O)(=O)c2ccc(NC(=O)N3CCCC3)cc2)c1,inactive: -2.29%
18,COc1ccc(C2CC(=O)N(Cc3ccccc3)c3c2c(C)nn3-c2nc(C)cc(C)n2)c(OC)c1 (stereo not given),inactive: -16.4%
19,Cc1ccccc1CNC(=O)Nc1ccc2c(c1)N(C)C(=O)c1ccccc1S2,inactive: -14.5%
20,O=c1cc(-c2ccccc2)c2ccc3c(c2o1)CN(Cc1ccccc1)CO3,inactive: -13.2%
21,CCC(=O)N1CCc2cc(Br)cc(S(=O)(=O)CCC(=O)NCCc3ccccc3)c21,inactive: -2.91%
22,CCc1ccccc1NC(=O)Cn1cc2c(n1)CCC(C)C2 (stereo not given),inactive: -14.4%

row,SMILES,activation
1,CCOC(=O)c1c(-c2ccccc2)oc2ccc(N(C(C)=O)S(=O)(=O)c3ccc(C)cc3)cc12,inactive: -6.03%
2,CCc1ccc(NS(=O)(=O)c2ccc3[nH]cc(C(=O)N(C)Cc4ccco4)c(=O)c3c2)cc1,inactive: -4.26%
3,C/C=C/c1ccc(O)c(OC)c1,inactive: 6.6%
4,CCCN(C(=O)CCNC(=O)Cn1cnc2ccccc2c1=O)c1cccc(C)c1,inactive: 12%
5,CC(C)CN(CCNC(=O)c1cn(C)c2ccc(S(=O)(=O)N3CCCC3)cc2c1=O)CC(C)C,inactive: 4.64%
6,Cc1nn(-c2ccc(N3CCCCC3)nn2)c(C)c1CCC(=O)NCc1ccc(Cl)cc1,inactive: -22.3%
7,COCCCNC(=O)C1CCN(c2cc(C)nc3c(-c4ccc(Cl)cc4)c(C)nn23)CC1,inactive: -1.68%
8,CCN(CC)CCCNC(=O)c1ccc2c(Cl)c3c(nc2c1)CCCC3,inactive: 15.4%
9,CCc1nn2c(=O)cc(COC(=O)C(CC)c3ccccc3)nc2s1 (stereo not given),inactive: -8.97%
10,CCOC(=O)c1c(Oc2ccc(C(C)=O)cc2)nnc(-c2ccccc2)c1-c1ccccc1,inactive: -21.5%
11,CCOC(=O)Cn1c(=O)n(-c2ccccc2OC)c2nc(-c3ccc(C(C)C)cc3)nc(C(N)=O)c21,inactive: 29.4%
12,CC(C)CC1Nc2ccc(C(=O)NCCCOC(C)C)cc2NC1=O (stereo not given),inactive: -11.3%
13,COc1ccc(C(=O)NCCn2cc(SCC(=O)Nc3ccc4c(c3)OCCO4)c3ccccc32)cc1OC,inactive: 34.2%
14,CCCNC(=O)CSc1nc(-c2ccc(OC)cc2)cc(C(F)(F)F)n1,inactive: -8.24%
15,COc1ccccc1N1CCN(CC(O)COc2cc(OC)c(OC)c(OC)c2)CC1 (stereo not given),inactive: -3.91%
16,c1ccc(CN2CCC3(CCCc4ccccc43)CC2)cc1,inactive: -23%
17,CNCC[C@@H](Oc1ccccc1C)c1ccccc1,inactive: -12.4%
18,O=C(CC1N=C2c3ccccc3N=C(SCC(=O)Nc3ccc(F)cc3)N2C1=O)NCc1cccs1 (stereo not given),inactive: -11.9%
19,O=C(NCc1ccccc1)c1ccc2oc(=O)n(Cc3ccccc3)c2c1,inactive: 12.7%
20,COc1ccc(CC(=O)N2CCc3cc(OC)c(OC)cc3C2COc2ccc(F)cc2)cc1OC (stereo not given),inactive: -4.8%
21,COc1ccc2c(CNCc3cccs3)c(C(=O)O)n(Cc3ccccc3F)c2c1,inactive: -1.94%
22,CN(C)c1ccc(NC(=O)CSC2=Nc3ccccc3C3=NC(CCC(=O)NCc4cccs4)C(=O)N23)cc1 (stereo not given),inactive: -32.1%

row,SMILES,activation
1,NS(=O)(=O)c1ccc2nc(NC(=O)COc3ccc(Cl)cc3Cl)sc2c1,inactive: 2.42%
2,COCCNC(=O)c1ccc2c(c1)N=C(C)c1cc(C)ccc1S2,inactive: 10.4%
3,Cc1c(C(=O)NC(C)c2ccccc2)sc2nc3n(c(=O)c12)CCCC3 (stereo not given),inactive: -14.1%
4,Cn1c(SCC(=O)Nc2nc3ccccc3s2)ncc(C(=O)Nc2ccc(F)cc2)c1=O,inactive: -4.78%
5,COc1cccc(C(=O)Nc2cccc(C(=O)OCc3cc(=O)n4c(C)csc4n3)c2)c1,inactive: -1.97%
6,CC1CCN(C(=O)c2cccc(NC(=O)c3nsc4ccccc34)c2)CC1,inactive: -4.82%
7,CCOC(=O)COc1ccc(C)cc1C(=O)c1ccn2nc(-c3ccc(F)cc3)cc2n1,inactive: -8.01%
8,COc1ccc(CCNC(=O)C2COc3ccccc3C2)cc1OC (stereo not given),inactive: -4.75%
9,COc1ccc(CCNC(=O)Cc2c(C)c3cc4c(C)coc4c(C)c3oc2=O)cc1,inactive: -26.2%
10,CCCCSc1nnc2c(n1)OC(C)N(C(C)=O)c1ccccc1-2 (stereo not given),inactive: 6.11%
11,CCc1ccccc1NC(=O)CC1Sc2ccc(C(F)(F)F)cc2NC1=O (stereo not given),inactive: -2.43%
12,O=C(NCCc1ccccc1)c1ccc2c(c1)N(Cc1ccc(F)cc1)C(=O)c1ccccc1S2,inactive: -20.9%
13,COc1ccc(C(=O)NC(c2ccc(Cl)cc2)c2cc(Cl)c3cccnc3c2O)cc1 (stereo not given),inactive: -41%
14,Cn1c(Oc2ccc(Cl)cc2)nc2c1c(=O)n(Cc1ccc(F)cc1)c(=O)n2C,inactive: 16.5%
15,Cc1cc(C)cc(NC(=O)CCC(=O)N2CCSc3ccccc32)c1,inactive: -16.7%
16,COc1cc(Cl)c(C)cc1NC(=O)c1cnc(N2CCOCC2)c2ccccc12,inactive: -12.1%
17,Cn1c(SCc2ccc(Br)cc2)nc2c([nH]c3ccccc32)c1=O,inactive: 1.1%
18,Cc1ccc(S(=O)(=O)NCCc2csc(-c3cccc(F)c3)n2)cc1,active: 80%
19,Cc1ccc(Nc2ccc(N3CCN(C(=O)c4ccc([N+](=O)[O-])cc4)CC3)nn2)cc1,inactive: 3.82%
20,Cc1cccn2c(=O)c3cc(C(=O)Nc4ccc(Cl)c(Cl)c4)sc3nc12,inactive: 3.27%
21,Cc1ccc(C)c(NS(=O)(=O)c2cc3c4c(c2)C(C)C(=O)N4CCC3)c1 (stereo not given),inactive: -9.02%
22,O=C(c1ccc(Nc2nc3ccccc3n3nnnc23)cc1)N1CCN(c2cccc(C(F)(F)F)c2)CC1,inactive: -2.73%

row,SMILES,activation
1,CCOC(=O)c1cccc(NS(=O)(=O)c2cc3c(cc2C)NC(=O)CO3)c1,inactive: -5.39%
2,Cc1ccc(NC(=O)CN2C(=O)CC(C)Sc3ccccc32)c(C)c1 (stereo not given),inactive: -19.6%
3,Cc1nc2ccn(Cc3ccco3)c(=O)c2cc1C(=O)NCc1ccc(F)cc1,inactive: -5.26%
4,Cc1c(Cl)cccc1-n1ncc(C(=O)N2CCOCC2)c1C1CCN(C(=O)OC(C)(C)C)CC1,inactive: -15.1%
5,NS(=O)(=O)C#Cc1ccccc1,inactive: -1.33%
6,Cc1oc2ccc(O)c(CN3CCOCC3)c2c1C(=O)Nc1cccc(Cl)c1C,inactive: 18.4%
7,Cc1ccc(NC(=O)C2CCN(c3nnc(C)c4c(C)n(-c5ccccc5)nc34)CC2)cc1Cl,inactive: -10.1%
8,CCNC(=O)Cn1nc(C)n2c(cc3c(OC)cccc32)c1=O,inactive: -4.44%
9,Cc1ccc(OCC(=O)OCc2cc(=O)n3nc(C4CC4)sc3n2)cc1,inactive: 7.4%
10,Cc1cc(C)n(C(C)CC(=O)NCc2ccc(Cl)cc2)n1 (stereo not given),inactive: -10.1%
11,Cc1ccc(OCCCSc2nc(-c3ccc(C(C)(C)C)cc3)nc3cc(=O)[nH]n23)cc1C,inactive: -21.2%
12,COc1ccc(NC(=O)Cn2cc(S(=O)(=O)Cc3ccc(F)cc3)c3ccccc32)cc1OC,inactive: 18.5%
13,CCOC(=O)C1CCC(CN(Cc2cccc(Br)c2)S(=O)(=O)c2ccc(Cl)cc2)CC1 (stereo not given),inactive: -1.26%
14,Cc1ccc(C)c(CNC(=O)c2cc3ccccn3n2)c1,inactive: -1.46%
15,COc1ccc(N2CC(NC(=O)COc3ccc4ccccc4c3)CC2=O)cc1OC (stereo not given),inactive: 37.4%
16,CCN1C(=O)C(Cc2nc3ccccc3c(=O)n2-c2ccc(OC)cc2)c2ccccc21 (stereo not given),inactive: -13.9%
17,CC1Cc2cc(S(=O)(=O)NCc3ccc(N(C)C)cc3)ccc2N1C(=O)C1CCC1 (stereo not given),inactive: 10.8%
18,CCOC(=O)N1CCc2c(sc3c2C(=O)NC(c2ccccc2F)N3)C1 (stereo not given),inactive: -23.2%
19,Cc1ccc(-n2c(=O)c3c4c(sc3n(CC(=O)Nc3ccccc3C)c2=O)CCCCC4)cc1C,inactive: 28.7%
